B1: TPR 5TU (parent)
chain: GGAUCUUCUCGAUCUAACAAAAAAGACAAAUCUGCCACAAAGCUUGAGAGCAUCUUCGGAUGCAGAGGCGGCAGCCUUCGGUGGCGCGAUAGCGCCAACGUUCUCAACUAUGACACGCAAAACGCGUGCUCCGUUGAAUGGAGUUUAUCAUG

This note sets out measurements from the RNAGym collection of RNA variant scans (doi:10.1073/pnas.2313332121).

Variants at the floor of the assay are shown more often than the library holds them.

The variants in this data set derive from B1. Description: polymerase ribozyme fitness, log enrichment relative to wild type (log ratio); higher = more active; in vitro selection for triplet polymerase activity. A digest of the protocol: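 One round of in vitro selection, in triplicate, was applied to PCR-built, transcribed mutant libraries of each subunit of a heterodimeric triplet polymerase ribozyme. The steps were annealing with a biotinylated primer, partner subunit and triplets, incubation frozen at −7 °C, gel excision of extended constructs, streptavidin-bead capture and RT-PCR. Fitness is the logarithm, base 2, of genotype enrichment over wild-type enrichment from inverse-variance-weighted replicate averages of Illumina-sequenced inputs and outputs, keeping genotypes with ≥10 input reads and ≥1 read per output.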
Take GGAUCUUCUCUAUCUAACAAAAAAGACAAACCUGCCACAAAGCUUGAGAUCAUCUUCGAAAGCAGAGGCGGCAGCAUUCGGUGGCGCGAUAGCGCCAACGUUCUCAACUAUGACACGCAAAACGCGUGCUCCGUUGAAAGGCGUUUAUCAUG: the “polymerase ribozyme fitness (log ratio)” value was no more than -4.2. With GGAUCUUCUCGCUCUAGCAAAAAAGACAAAUCUGCCACAUAGCUUGAGAGCAUCUUCGGAUGCAGGGGCGGCUGCCUUCGCUGGCGCGAUAGCUCCAGCGUUCUCAACUAUGACACGCAAAACGCGUGCUCCGUUGAAUGGAGUUUAUCAUG, the “polymerase ribozyme fitness (log ratio)” value was no more than -4.2. With GGAUCUUCUCGCUCUAACAAAAGAGACAAAUCUGCCAUAAAGCUUGAGAGCAUCUUCGGAUGCAGAGGCGGCAGGCUUCGAUGGCGCGAUAGCGCCAACGUUCUCAACUAUGACACGCAAAACGCGUGCUCCUUUGAAUGGAGUUUAUCAUG the figure was no more than -4.2; with GGAUCUUCUCUAUCGAACAAAAAAGACAAAUCUGCCACACAGCUUGAGAGCAUCUUCGGAUGCAGAGGCGUCAGCCUUCGGUGGCGCGAUAGUGCCAACGUUCUCAACUAUGACACGCAAAACACGUGCUCCGUUGAGUGGAGUAUAUAAUG, no more than -4.2.

For GGAUCUUCUCUAUCUAACAAAAAAGACAAAUCUGCCACAAAGCAUGAGAGCAUCUACGGAUGCAGAGGCGGCAGCCUUCGGUGGCGCGAUAGCGCCAAUGUUCUCAACUAUGACACGCAAAACUCGUGCUCCGUUGAAUGGAGUUUAUCAUG, the “polymerase ribozyme fitness (log ratio)” value is no more than -4.2.

Turning to GGAUCUUCUCGCUCUAACAAAAGAGACAAAUCUGCCACAAAGCUUGAGAUCAUCUUCGGAUGCAGAGGCGGCAGCCUUCGGUAGCGCGAUAGCGCCAACGUUCUCAACUAUGACACGCAAAACGCGUGCUCCGUUGAAUGGAGUUUAUCAUG, the “polymerase ribozyme fitness (log ratio)” value is no more than -4.2. For GGAUCUUCUCGCUCUAACAAUAAAUACAAAUCUGCCAAACAGCUUGGGAGCAUCUUCGGAUGCAGAGGCGGCAGCCUUCGGUGGCGCGAUAGCGCCAACGUUCUCAACUAUGACACGCAAAACGCGUGCUCCGUUGGAUGGAGUUUAUCAUG the value was no more than -4.2; for GGAUCUUCUCUAUCUAACAAAAAAGACAAAUCUGCCACAAAGCUUGAGAGCAUCUUCGGAUGCAGAGGCGGCAGCCUUCGGUGGCAAGAUAGCGCCAACGUUAUCAACUAUGACACGCAAAACGCAUGCUCCGUUGAAUGGAGUUUAUCAUG, no more than -4.2; for GGAUCUUCUCGCUCUAACAAAAAUGACAAAACUGCCACAAAGCUUGAGAGCAUAUUCGGAUGCAGAGGCGGUAGCCUUCGGUGGCUCGAUAGCGCCCACGUUCUCAACUAUGACACGCAAAACGCGUGCUCCGUUGAAUGGAGUUGAUCAUG, no more than -4.2. With GGAUCUUCUCGCUCUAACAAAAAAGACUAAUCUGCCACAAAGCUUGAGAGCAUUUUCGGAUGCAGAGGCGGCACCCUUCGGUGGCGCGAUACCGCCAACGUUCUCAACUAUGACACGCAAAACGCUUGCUCCGUUGAAUGGAGUUUAUCAUG the figure was no more than -4.2.

For GGAUCUUCUCGCUCUAACAAAAAAGACAAGUCUGCCACAAAGCUUGAGAGCAUCUUCGGAUGUAGAGGCGGCAGCCUUCGGUGGCGCGAUAGCGCCAACGUUCUCAACUAUGACACGCAAAACGCGUGCUCCGUUGAAUGGAGUGUAUCAUG, the “polymerase ribozyme fitness (log ratio)” value is no more than -4.2. In the case of GGAUCUUCUCUAUCGAACAAAAAGGACAAAUCUGCCACAAAGCUUGAGAGCAUCUGCGGAUGCAGAGGCGGCAGCCUUCGGUGGCGCGAUAGUGCCAACGUUCUCAACUAUGACACGCAAAACGCGUGCUCCGUUGAAUGGAGUUUAUCAUG, the “polymerase ribozyme fitness (log ratio)” value was no more than -4.2. With GGAUCUUCUCGCUCUAGCAAAAAAGACAAAUCUGCCACAAAGCUUGACAGCAUCUUCGGAUGCAGAGGCGGCAGCCUUCCGUGACGCGAUAGCGCCAACGUUCUCAACUAUGACACGCAAAACGCGUGCUCCGUUGAAUGACGUUUAUCAUG the figure was no more than -4.2; with GGAUCUUCUCGCUCUAACAAAAAAGACAUAUCUGCCACCAAGCUUGAGAGCAUCUUCGGAUGCAGAGGCGACAGCCUUCGGUGGCGCGAUAGCGCCAACGUUCUCAACUAUGACACGCAAAACGCGUGCUCCGUUGAAUGGAGUUUACCAUG, no more than -4.2.

As to GGAUCUUCUCUAUCAAACAAAAAAGACAAAUCUGCCACAAAGCUUAAGAGCAUCUUCGUAUGCAGAGGCGGCAGGCUUCGGUGGCGCGAUAGCGCCAACGUUCUCAACUAUGACAGGCAAUACGCGUGCUCCGUUGAAUGGAGUUUAUCAUG, the “polymerase ribozyme fitness (log ratio)” value was no more than -4.2. With GGAUCUUCUCGCUCUAACAAAAAGGACAAAUCUGCCACAAAGCUUGAGAGCCUCUUCGGCUGCAGAGGCGGCAGCCUUCGGUGGCGCGAUAGCGCCAACGUUCUCAACUAUGACACGCAAAACGCGUGCUCCGUUGAAUGGAGUUUAUCAUG the figure was no more than -4.2.

Take GGAUCUUCUCUAUCUAACAAAAAAGACAAAUCUGCCACAAAGCUUGAGAGCAUCUUCGGAUGCAGAGGCGGCAGCCUUCGGUGGCGCGAUAACGACAACGUUCUCAACUAUGACACGCAAAACGCGUGCUCCGUUGAAUGGAGUUUAUCAUG: the “polymerase ribozyme fitness (log ratio)” value was no more than -4.2. With GGAUCUUCUCUAUCUAACAAAAAAGACAAAUCUGCCACAAAGCUUGAGAGCAUCUUCGGAAGCAGAGGCGGCAGACUUCGGUGGCGCGAUAGCACCAACGUUCUCAACUAUGACACGCAAAACGCGUGCUCCGUUGAAUGGAAUUUAUCAUG the figure was no more than -4.2; with GGAUCUUCUCGCUCUAACACAAAAGGCAAAUCUGUCACACAGCUUGAGAGCAUCCUCGGAUGCAGAGGCGGCUGCCUUCGGUGGCGCGAUAGGCCCAACGUUCUCAACUAUGACACGCAAAACGCGUGCUCCGUUGAAUGGAGUUUAUCAUG, no more than -4.2.
